Data from the supplement of paper PMC7826260.
This is one part of the list. Each Rep nickase domain was tested in vitro on the same pool of single strands (3 µM enzyme, 1 h, 37 °C); shown is the middle of each 90-letter strand. The score is log2 (uncut reads / reads without enzyme); strong cutting gives strongly negative numbers. There is no active / inactive call. The scaling is to total reads; values above 0 arise when much of the pool is cut.

Legend:
Test in all cases: uncleaved DNA left, log2 of reads against the no-enzyme library (log2 ratio); higher = less cleavage (more negative = more Rep cleavage of the k-mer); sequences stand for … in CTCGTCCG…ACCGGAGA
[1] = test system: T1, Rep nickase domain of Muscovy duck circovirus
T1 sequence (residues 1-111 of Rep, tag left off): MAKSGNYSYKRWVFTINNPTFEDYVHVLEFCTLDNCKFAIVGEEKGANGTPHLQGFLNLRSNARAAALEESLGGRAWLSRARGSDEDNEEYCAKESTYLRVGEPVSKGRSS
Description: (§1)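 A pool of 90-nt single-stranded DNAs with seven random bases just before the constant AC of the nick site (name = the seven bases) was cut by 3 µM recombinant His6-SUMO-tagged Rep nickase domain (300 nM DNA, 50 mM HEPES pH 8.0, 50 mM NaCl, 1 mM MnCl2, 1 h, 37 °C, three replicates). Uncut DNA was amplified and sequenced.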

[2] = test system: T2, Rep nickase domain of banana bunchy top virus
T2 sequence (residues 1-94 of Rep, tag left off): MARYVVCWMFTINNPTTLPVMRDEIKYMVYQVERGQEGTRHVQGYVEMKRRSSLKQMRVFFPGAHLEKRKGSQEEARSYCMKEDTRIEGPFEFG
Description: as §1

[3] = test system: T3, Rep nickase domain of cabbage leaf curl virus
T3 sequence (residues 1-116 of Rep, tag left off): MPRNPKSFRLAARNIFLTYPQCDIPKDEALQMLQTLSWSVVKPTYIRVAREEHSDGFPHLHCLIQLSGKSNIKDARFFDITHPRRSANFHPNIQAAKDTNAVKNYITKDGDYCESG
Description: as §1

[4] = test system: T4, Rep nickase domain of chickpea chlorotic dwarf virus
T4 sequence (residues 1-124 of Rep, tag left off): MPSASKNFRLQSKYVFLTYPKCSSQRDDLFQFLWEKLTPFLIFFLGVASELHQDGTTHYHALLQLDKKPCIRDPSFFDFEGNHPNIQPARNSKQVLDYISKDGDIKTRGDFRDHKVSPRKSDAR
Description: as §1

[5] = test system: T5, Rep nickase domain of faba bean necrotic yellows virus
T5 sequence (residues 1-98 of Rep, tag left off): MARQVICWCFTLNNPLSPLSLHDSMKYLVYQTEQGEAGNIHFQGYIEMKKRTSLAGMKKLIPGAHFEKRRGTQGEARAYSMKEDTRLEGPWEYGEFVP
Description: as §1

[6] = test system: T6, Rep nickase domain of maize striate mosaic virus
T6 sequence (residues 1-117 of Rep, tag left off): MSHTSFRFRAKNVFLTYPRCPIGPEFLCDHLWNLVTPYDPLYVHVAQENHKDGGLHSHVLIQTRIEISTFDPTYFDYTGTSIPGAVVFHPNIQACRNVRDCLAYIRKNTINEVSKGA
Description: as §1

[7] = test system: T7, Rep nickase domain of porcine circovirus 2
T7 sequence (residues 2-116 of Rep, tag left off): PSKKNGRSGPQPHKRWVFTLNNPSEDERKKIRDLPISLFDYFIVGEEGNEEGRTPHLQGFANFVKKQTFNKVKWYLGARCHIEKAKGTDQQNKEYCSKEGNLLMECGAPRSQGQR
Description: as §1

[8] = test system: T8, Rep nickase domain of tomato golden mosaic virus
T8 sequence (residues 1-124 of Rep, tag left off): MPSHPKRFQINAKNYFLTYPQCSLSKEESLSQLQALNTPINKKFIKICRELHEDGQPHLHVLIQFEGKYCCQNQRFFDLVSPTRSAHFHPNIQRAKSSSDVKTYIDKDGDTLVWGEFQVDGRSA
Description: as §1

[9] = test system: T9, Rep nickase domain of tomato yellow leaf curl virus
T9 sequence (residues 1-136 of Rep, tag left off): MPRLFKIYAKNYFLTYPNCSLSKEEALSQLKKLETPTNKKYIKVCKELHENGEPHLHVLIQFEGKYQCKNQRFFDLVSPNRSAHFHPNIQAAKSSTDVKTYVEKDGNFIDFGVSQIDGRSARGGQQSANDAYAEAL
Description: as §1

[10] = test system: T10, Rep nickase domain of wheat dwarf virus
T10 sequence (residues 1-137 of Rep, tag left off): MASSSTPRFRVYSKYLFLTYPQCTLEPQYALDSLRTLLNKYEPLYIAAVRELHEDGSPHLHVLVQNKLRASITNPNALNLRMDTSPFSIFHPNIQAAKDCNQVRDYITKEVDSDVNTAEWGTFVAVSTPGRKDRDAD
Description: as §1

## TAGGCTG
[1]
  uncleaved DNA left (log2): 0.00367
[2]
  uncleaved DNA left (log2): 0.126
[3]
  uncleaved DNA left (log2): 0.241
[4]
  uncleaved DNA left (log2): 1.13
[5]
  uncleaved DNA left (log2): -0.017
[6]
  uncleaved DNA left (log2): 1.73
[7]
  uncleaved DNA left (log2): 0.0645
[8]
  uncleaved DNA left (log2): 0.111
[9]
  uncleaved DNA left (log2): -0.118
[10]
  uncleaved DNA left (log2): -0.0152

## GGAACCC
[1]
  uncleaved DNA left (log2): -0.000207
[2]
  uncleaved DNA left (log2): 0.0994
[3]
  uncleaved DNA left (log2): 0.641
[4]
  uncleaved DNA left (log2): 1.34
[5]
  uncleaved DNA left (log2): 0.0293
[6]
  uncleaved DNA left (log2): 1.98
[7]
  uncleaved DNA left (log2): -0.0366
[8]
  uncleaved DNA left (log2): 0.102
[9]
  uncleaved DNA left (log2): 0.162
[10]
  uncleaved DNA left (log2): 0.166

## ATAACGA
[1]
  uncleaved DNA left (log2): 0.0663
[2]
  uncleaved DNA left (log2): 0.0265
[3]
  uncleaved DNA left (log2): -0.821
[4]
  uncleaved DNA left (log2): -0.916
[5]
  uncleaved DNA left (log2): 0.0281
[6]
  uncleaved DNA left (log2): -1.08
[7]
  uncleaved DNA left (log2): 0.138
[8]
  uncleaved DNA left (log2): -0.0392
[9]
  uncleaved DNA left (log2): -0.108
[10]
  uncleaved DNA left (log2): -0.113

## GTACGCA
[1]
  uncleaved DNA left (log2): 0.0408
[2]
  uncleaved DNA left (log2): -0.00565
[3]
  uncleaved DNA left (log2): 0.0885
[4]
  uncleaved DNA left (log2): 0.447
[5]
  uncleaved DNA left (log2): -0.00211
[6]
  uncleaved DNA left (log2): 0.624
[7]
  uncleaved DNA left (log2): -0.0039
[8]
  uncleaved DNA left (log2): 0.0413
[9]
  uncleaved DNA left (log2): -0.0555
[10]
  uncleaved DNA left (log2): -0.0162

## TCCGCCG
[1]
  uncleaved DNA left (log2): -0.0139
[2]
  uncleaved DNA left (log2): -0.085
[3]
  uncleaved DNA left (log2): -0.73
[4]
  uncleaved DNA left (log2): -0.0286
[5]
  uncleaved DNA left (log2): 0.0308
[6]
  uncleaved DNA left (log2): -0.711
[7]
  uncleaved DNA left (log2): 0.0234
[8]
  uncleaved DNA left (log2): -0.0167
[9]
  uncleaved DNA left (log2): -0.0317
[10]
  uncleaved DNA left (log2): -0.11

## AAGTGAA
[1]
  uncleaved DNA left (log2): 0.00908
[2]
  uncleaved DNA left (log2): 0.0338
[3]
  uncleaved DNA left (log2): 0.16
[4]
  uncleaved DNA left (log2): 0.826
[5]
  uncleaved DNA left (log2): 0.035
[6]
  uncleaved DNA left (log2): 1.24
[7]
  uncleaved DNA left (log2): -2.64
[8]
  uncleaved DNA left (log2): 0.18
[9]
  uncleaved DNA left (log2): -0.0918
[10]
  uncleaved DNA left (log2): 0.0454

## TTCTCGG
[1]
  uncleaved DNA left (log2): -0.118
[2]
  uncleaved DNA left (log2): 0.0617
[3]
  uncleaved DNA left (log2): 0.531
[4]
  uncleaved DNA left (log2): 1.49
[5]
  uncleaved DNA left (log2): -0.196
[6]
  uncleaved DNA left (log2): 2
[7]
  uncleaved DNA left (log2): 0.111
[8]
  uncleaved DNA left (log2): 0.109
[9]
  uncleaved DNA left (log2): -0.129
[10]
  uncleaved DNA left (log2): -0.0644

## TTGGCGG
[1]
  uncleaved DNA left (log2): -0.0134
[2]
  uncleaved DNA left (log2): -0.0953
[3]
  uncleaved DNA left (log2): 0.203
[4]
  uncleaved DNA left (log2): 0.712
[5]
  uncleaved DNA left (log2): 0.0188
[6]
  uncleaved DNA left (log2): 0.825
[7]
  uncleaved DNA left (log2): 0.133
[8]
  uncleaved DNA left (log2): 0.0518
[9]
  uncleaved DNA left (log2): -0.053
[10]
  uncleaved DNA left (log2): -0.07

## ATAACAT
[1]
  uncleaved DNA left (log2): -0.016
[2]
  uncleaved DNA left (log2): 0.136
[3]
  uncleaved DNA left (log2): -0.307
[4]
  uncleaved DNA left (log2): -0.544
[5]
  uncleaved DNA left (log2): -0.0192
[6]
  uncleaved DNA left (log2): 0.217
[7]
  uncleaved DNA left (log2): 0.136
[8]
  uncleaved DNA left (log2): 0.0253
[9]
  uncleaved DNA left (log2): 0.0817
[10]
  uncleaved DNA left (log2): 0.0533

## ACTACTA
[1]
  uncleaved DNA left (log2): 0.0423
[2]
  uncleaved DNA left (log2): 0.0797
[3]
  uncleaved DNA left (log2): -0.17
[4]
  uncleaved DNA left (log2): -1.75
[5]
  uncleaved DNA left (log2): 0.214
[6]
  uncleaved DNA left (log2): -0.645
[7]
  uncleaved DNA left (log2): -0.011
[8]
  uncleaved DNA left (log2): 0.0909
[9]
  uncleaved DNA left (log2): 0.0701
[10]
  uncleaved DNA left (log2): 0.0378

## CTGTATA
[1]
  uncleaved DNA left (log2): -0.0178
[2]
  uncleaved DNA left (log2): -0.15
[3]
  uncleaved DNA left (log2): -0.188
[4]
  uncleaved DNA left (log2): -1.38
[5]
  uncleaved DNA left (log2): 0.0792
[6]
  uncleaved DNA left (log2): -0.428
[7]
  uncleaved DNA left (log2): -0.211
[8]
  uncleaved DNA left (log2): -0.00703
[9]
  uncleaved DNA left (log2): -0.0158
[10]
  uncleaved DNA left (log2): 0.0129

## CTGACGT
[1]
  uncleaved DNA left (log2): 0.0482
[2]
  uncleaved DNA left (log2): 0.0493
[3]
  uncleaved DNA left (log2): 0.0484
[4]
  uncleaved DNA left (log2): 0.128
[5]
  uncleaved DNA left (log2): -0.041
[6]
  uncleaved DNA left (log2): -0.257
[7]
  uncleaved DNA left (log2): 0.0747
[8]
  uncleaved DNA left (log2): 0.000796
[9]
  uncleaved DNA left (log2): 0.0203
[10]
  uncleaved DNA left (log2): 0.0812

## GTACTAC
[1]
  uncleaved DNA left (log2): -0.333
[2]
  uncleaved DNA left (log2): 0.0575
[3]
  uncleaved DNA left (log2): 0.109
[4]
  uncleaved DNA left (log2): 0.273
[5]
  uncleaved DNA left (log2): -0.116
[6]
  uncleaved DNA left (log2): 1.64
[7]
  uncleaved DNA left (log2): -1.84
[8]
  uncleaved DNA left (log2): 0.0389
[9]
  uncleaved DNA left (log2): 0.105
[10]
  uncleaved DNA left (log2): 0.102

## TGAGTAA
[1]
  uncleaved DNA left (log2): 0.0534
[2]
  uncleaved DNA left (log2): 0.106
[3]
  uncleaved DNA left (log2): 0.0475
[4]
  uncleaved DNA left (log2): -0.0513
[5]
  uncleaved DNA left (log2): 0.18
[6]
  uncleaved DNA left (log2): 0.0823
[7]
  uncleaved DNA left (log2): -0.0293
[8]
  uncleaved DNA left (log2): 0.178
[9]
  uncleaved DNA left (log2): 0.00197
[10]
  uncleaved DNA left (log2): 0.13

## TGGCTTC
[1]
  uncleaved DNA left (log2): -0.0331
[2]
  uncleaved DNA left (log2): 0.0359
[3]
  uncleaved DNA left (log2): 0.365
[4]
  uncleaved DNA left (log2): 0.723
[5]
  uncleaved DNA left (log2): -0.121
[6]
  uncleaved DNA left (log2): 0.863
[7]
  uncleaved DNA left (log2): 0.077
[8]
  uncleaved DNA left (log2): -0.0552
[9]
  uncleaved DNA left (log2): -0.0474
[10]
  uncleaved DNA left (log2): 0.0767
